Test results reported in PubChem BioAssay AID686978 (National Center for Advancing Translational Sciences (NCATS), 2013).
Screen size: about 420,000 compounds; about 64,000 (15%) were called active. The inconclusive results got no clear call from the source; some entries with a clear call stand among them for comparison. Calls follow the shape of the dose curve; as a rule, active = well fitted inhibition curve with a large enough effect; inconclusive = small, poorly fitted or top-dose-only effect; inactive = flat fitted curve, though single readings scatter. Potencies of inconclusive entries are left out as doubtful fits.

Experiment: qHTS for Inhibitors of human tyrosyl-DNA phosphodiesterase 1 (TDP1): qHTS in cells in absence of CPT; also: nearly all actives have a fitted effect of over 55% in size
Conditions: DT40 Tdp1-/- hTDP1 cells, no CPT, ATP luminescence, 48 h
Outline: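 Compound effects on proliferation are scored in DT40 Tdp1-/-;hTDP1 cells in the absence of CPT. ATP levels (CellTiter-Glo luminescence) are recorded after a ≥48 hr, 37 °C incubation.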

[1] = activity change, negative = growth inhibition: at 46.2 µM (top of the series)
% is scaled to controls: 0 for no effect and ±100 for the full control effect; potency is read from the fitted curve at half-maximal effect; tags tell the direction and shape of the fitted curve.

Compound: Cc1ccc(NC(=O)c2cc(C)nc3c2c(C)nn3-c2cccc(Cl)c2C)c(C)c1
- Potency [1]: inconclusive [inhibitor, single point]

Compound: Cc1cccc(Cn2c(=O)n(CCc3ccccc3)c(=O)c3c(C)c(C)sc32)c1
- Potency [1]: inconclusive [inhibitor, partial curve, poor fit]

Compound: CC(C)CCn1c(COc2ccccc2)n[nH]c1=S
- Potency [1]: inactive

Compound: O=S(=O)(c1ccccc1)N1CCN(Cc2ccccc2)c2ccccc21
- Potency [1]: inconclusive [inhibitor, single point]

Compound: COc1ccccc1C1NC(=O)NC(C)=C1C(=O)OC1CCCC(C)C1 (stereo not drawn)
- Potency [1]: inconclusive [inhibitor, single point]

Compound: COc1cnc(-c2ccccn2)nc1N(C)C
- Potency [1]: active: 2.91 µM

Compound: CCN(CC)C(=O)c1ccc(Cn2cc([N+](=O)[O-])cn2)o1
- Potency [1]: inactive

Compound: COc1ccccc1C1CN(CC(=O)N2CCC(C(O)c3ccccn3)CC2)Cc2ccccc2O1 (stereo not drawn)
- Potency [1]: inconclusive [inhibitor, single point]

Compound: CCN(CC(=O)Nc1ccccc1OC)C(=O)c1ccc(NS(=O)(=O)c2ccc(C(C)=O)cc2)cc1
- Potency [1]: inactive

Compound: Cc1ccc(C(=O)NCC(=O)OCC(=O)c2ccc3c(c2)NC(=O)CO3)cc1
- Potency [1]: inactive

Compound: CN1C(=O)c2oc3ccccc3c(=O)c2C1c1ccncc1 (stereo not drawn)
- Potency [1]: inconclusive [inhibitor, single point]

Compound: CCOc1ccc2oc(C(=O)Nc3ccc(C)cn3)c(C)c2c1
- Potency [1]: active: 18.4 µM

Compound: O=C(CCN1C(=O)C2C3C=CC(C3)C2C1=O)N1CC(=O)N(CCc2ccccc2)C(=O)C1 (stereo not drawn)
- Potency [1]: inconclusive [inhibitor, partial curve, poor fit]

Compound: Cc1nc2ccccc2n1CC(=O)NCc1ccccc1
- Potency [1]: active: 11.6 µM

Compound: COC(=O)Cc1ccc(NC(=S)NCc2ccccc2OC)cc1
- Potency [1]: inconclusive [inhibitor, single point]

Compound: CCc1ccc(/C=C2\SC(=S)N(CCCC(=O)Nc3nccs3)C2=O)cc1
- Potency [1]: inactive

Compound: CCn1cc(C(=O)NCc2ccccc2OC)c(=O)c2cc(S(=O)(=O)N3CCCCC3)ccc21
- Potency [1]: inconclusive [inhibitor, single point]

Compound: O=C(O)c1ccccc1-c1ccccc1C(=O)NNc1ccccc1
- Potency [1]: inactive

Compound: S=c1cnc2ccccc2[nH]1
- activity change, negative = growth inhibition [1]: inconclusive: -31% [inhibitor]

Compound: COc1ccccc1CN1COc2ccc3c(oc(=O)c4ccccc43)c2C1
- Potency [1]: active: 23.1 µM

Compound: CCCCNC(=S)N(Cc1ccco1)Cc1cc2cc3c(cc2[nH]c1=O)OCCO3
- Potency [1]: inactive

Compound: Cc1ncsc1CCOC(=O)c1ccc(Cl)cc1
- Potency [1]: inactive

Compound: COc1ccc(CNC(=O)c2noc(C(C)C)c2[N+](=O)[O-])cc1
- Potency [1]: inconclusive [inhibitor, single point]

Compound: CCn1c(=O)cc(SCC(=O)NCCc2ccc(Cl)cc2)c2ccccc21
- Potency [1]: inconclusive [inhibitor, single point]

Compound: CN(/N=C/c1ccncc1)c1cnc2ccccc2n1
- Potency [1]: inconclusive [inhibitor, single point]

Compound: C=CCSc1nc2sc3c(c2c(=O)n1CC)CCC3
- Potency [1]: inconclusive [inhibitor, single point]

Compound: COc1c(C)cc(C(O)c2ncc(-c3ccccc3C)[nH]2)cc1C (stereo not drawn)
- Potency [1]: inconclusive [inhibitor, single point]

Compound: N/C(=N\NC(=O)c1ccc(F)cc1)c1cc2ccccc2oc1=O
- Potency [1]: inactive

Compound: CC1=CC(C)(C)N(C(=O)CSc2nnc(-c3ccccc3)o2)c2ccc(C)cc21
- Potency [1]: inconclusive [inhibitor, single point]

Compound: Cc1cc(-c2ccccc2C(=O)Nc2ccccc2O)on1
- Potency [1]: inactive

Compound: COc1cc(N(C(=O)Cc2cccs2)C(C(=O)NC2CCCCC2)c2cccc(OC)c2OC)ccc1-n1cnnn1 (stereo not drawn)
- Potency [1]: active: 25.9 µM

Compound: COc1ccccc1Nc1cc(C(=O)NC2CCCC2)c2ccccc2n1
- activity change, negative = growth inhibition [1]: inconclusive: -33.4% [inhibitor]
- activity change, negative = growth inhibition (at 46.2 µM (top of the series)): inactive: -2.6%

Compound: O=S(=O)(c1cc(F)ccc1F)N1CCC2(CC1)OCCN2S(=O)(=O)c1cccs1
- Potency [1]: inconclusive [inhibitor, single point]

Compound: Cc1cc(NC(=O)c2ccc(-c3ccccc3[N+](=O)[O-])o2)no1
- Potency [1]: inconclusive [inhibitor, single point]

Compound: CCOC(=O)c1cnc(NCc2ccccc2OC)c2ccccc12
- Potency [1]: inconclusive [inhibitor, partial curve, poor fit]

Compound: S=C1Cc2ccccc2C(c2ccc(Cl)cc2)N1 (stereo not drawn)
- Potency [1]: active: 23.1 µM

Compound: CCc1nc2c(OCCOc3ccccc3)cccn2c1N(C)C(=O)c1cccs1
- Potency [1]: inconclusive [inhibitor, single point]

Compound: COc1ccc(/C=C/C(=O)Nc2sc3c(c2C(N)=O)CCCC3)cc1
- Potency [1]: inactive

Compound: CCOC(=O)C1CCC(CN(Cc2ccc(Cl)cc2)S(=O)(=O)c2ccc(F)c(C(=O)Nc3cccc(F)c3)c2)CC1 (stereo not drawn)
- Potency [1]: inconclusive [inhibitor, full curve, poor fit]

Compound: O=[N+]([O-])c1ccc(N2CCN(CCOc3nonc3-c3ccccc3)CC2)c(Cl)c1
- Potency [1]: inconclusive [inhibitor, partial curve]

Compound: Cc1cc(C)cc(OCCCOc2cccc3cccnc23)c1
- Potency [1]: active: 16.4 µM

Compound: CCOC(=O)[C@@H]1[C@H]2COc3ccc(Br)cc3[C@H]2N2C(=O)N(c3ccc(F)cc3)C(=O)[C@]12C
- Potency [1]: inconclusive [inhibitor, single point]

Compound: COc1ccc(C(=O)OCC(=O)c2cc(OC)ccc2OC)c(OC)c1
- Potency [1]: inconclusive [inhibitor, single point]

Compound: CCN1CCN(c2nc(Nc3ccccc3F)nc(N)c2[N+](=O)[O-])CC1
- Potency [1]: inconclusive [inhibitor, single point]

Compound: Cc1nn(-c2ccc(Cl)cn2)c2c1C(=O)CC(C)(C)C2Br (stereo not drawn)
- Potency [1]: inconclusive [inhibitor, single point]

Compound: Cc1cc(C)cc(S(=O)(=O)Nc2cccc(-c3ccc(N4CCOCC4)nn3)c2)c1
- Potency [1]: inactive

Compound: O=C(Nc1c(-c2ccc(Cl)cc2)[nH][nH]c1=O)c1ccccn1
- Potency [1]: inactive

Compound: Nc1c(C(=O)Nc2ccc(Br)cc2)sc2nc(N3CCOCC3)c3c(c12)CCCC3
- Potency [1]: inconclusive [inhibitor, single point]

Compound: COc1ccc(OCCNc2cc(N3CCCCC3)ccc2[N+](=O)[O-])cc1
- Potency [1]: active: 23.1 µM

Compound: Cc1ccc(NC(=O)Cn2c(=O)n(CCC(=O)N3CCc4ccccc4C3)c(=O)c3ccccc32)cc1
- Potency [1]: active: 16.4 µM

Compound: Cc1ccc(Cn2c(C(=O)O)c(CNC3CCCCCC3)c3ccc(C)cc32)cc1
- Potency [1]: inactive

Compound: CCOC(=O)c1ccc(/[N+]([O-])=C/c2ccccc2)cc1
- Potency [1]: inconclusive [inhibitor, single point]

Compound: COc1ccc(Cn2c(C(=O)O)c(CNCCc3cccs3)c3ccc(C)cc32)cc1
- Potency [1]: active: 23.1 µM

Compound: CCCCCCNC(=O)CCCCCNS(=O)(=O)c1ccc(Br)cc1
- Potency [1]: inconclusive [inhibitor, single point]

Compound: COc1ccc(-c2nc(-c3ccccc3)c(-c3cc([N+](=O)[O-])ccc3C)[nH]2)cc1O
- Potency [1]: active: 14.6 µM

Compound: CC1CCN(S(=O)(=O)c2nnc(NC(=O)c3cccc([N+](=O)[O-])c3)s2)CC1
- Potency [1]: inactive

Compound: Cc1sc2ccccc2[n+]1CCC[n+]1c(C)sc2ccccc21
- Potency [1]: active: 1.78 µM

Compound: CCOC(=O)c1cccc(NC(=O)c2cnccn2)c1
- Potency [1]: inconclusive [inhibitor, full curve, poor fit]

Compound: CC(=O)Nc1ccc(NC(=O)c2ccc(NS(=O)(=O)c3cc(C(C)(C)C)ccc3C)cc2)cc1
- Potency [1]: inactive

Compound: Nc1ccc2oc(-c3ccccn3)nc2c1
- Potency [1]: inconclusive [inhibitor, single point]

Compound: Cc1ccc(C(=O)C(C)OC(=O)C2CCN(c3ccc(C(F)(F)F)cn3)CC2)cc1 (stereo not drawn)
- Potency [1]: inconclusive [inhibitor, single point]

Compound: O=C(Nc1ccc(C(=O)N2CCCc3ccccc32)cc1)c1cccs1
- Potency [1]: inconclusive [inhibitor, single point]

Compound: CCOc1ccc2c(c1)nc(C)n2C
- activity change, negative = growth inhibition [1]: inconclusive: -33% [inhibitor]

Compound: NC(CCc1ccccc1)c1csc(NC(=O)NCCc2ccccc2)n1 (stereo not drawn)
- Potency [1]: inconclusive [inhibitor, single point]

Compound: Cc1oc2ncn(CC(C)C)c(=O)c2c1C(=O)Nc1cc(F)ccc1F
- Potency [1]: inconclusive [inhibitor, full curve]

Compound: Cc1cnc(NC(=O)Cc2ccc(S(=O)(=O)N3CCOCC3)s2)s1
- Potency [1]: inconclusive [inhibitor, single point]

Compound: CC1CC(C)CN(c2oc(-c3ccc(OCc4ccccc4Cl)cc3)nc2C#N)C1 (stereo not drawn)
- Potency [1]: inconclusive [inhibitor, single point]

Compound: O=C1C(NS(=O)(=O)c2ccccc2)=C(N2CCN(c3ccc(F)cc3)CC2)C(=O)c2ccccc21
- Potency [1]: inconclusive [inhibitor, single point]

Compound: CCCCc1ccc(Nc2ncnc3nc[nH]c23)cc1
- Potency [1]: inactive

Compound: CCN1CCN(c2ccc(NC(=O)c3ccc([N+](=O)[O-])o3)cc2Cl)CC1
- Potency [1]: active: 0.517 µM

Compound: NNc1nc(-c2ccccc2)cc(-c2ccc(Br)cc2)n1
- Potency [1]: inconclusive [inhibitor, single point]

Compound: CC1CCC(N2CCN(S(C)(=O)=O)CC2)CC1 (stereo not drawn)
- Potency [1]: inactive
